In ChEMBL document CHEMBL4888484, “Replenishing the malaria drug discovery pipeline: Screening and hit evaluation of the MMV Hit Generation Library 1 (HGL1) against asexual blood stage Plasmodium falciparum ,using a nano luciferase reporter read-out” (2022):
Where “and” joins values, the source holds several entries; their conditions need not be identical. Identical values can stand only once. About 540 (0.36%) of roughly 150,000 compounds showed an effect of 50% or more. This is one part of the list.

Test system: Plasmodium falciparum
Experiment: Primary screen in NF54 nanoGlo assay, in single point, at 2uM, 72h; a lower Z score goes with more inhibition
Type: functional, Erythrocyte
Conditions: timepoint 72 hour

SMILES | % Inhibition (2 µM) | % Inhibition [%] | Z score
C[C@@H](CN1CCCCC1)OC(=O)Cc1ccc(Cl)cc1 | 0% and -13% |  | 
c1ccc(-c2nnc(-c3ccco3)nc2-c2c[nH]c3ccccc23)cc1 |  | -17 | 1.97
O=S1(=O)CCCN1CCN1CCCc2c(F)cccc21 |  | -6 | 0.89
COc1ccccc1-n1ccn2cc(-c3ccc(C)c(C)c3)nc2c1=O |  | -3 | 0.44
CCOc1ccc(S(=O)(=O)N2C[C@@H]3CN(C(C)C)C[C@]3(C(=O)N3CCCC3)C2)cc1 |  | -21 | 2.76
CC(C)(C)NC(=O)Cn1cccc(S(=O)(=O)N2CCCC2)c1=O |  | -5 | 0.85
O=C(N[C@H]1CCOC[C@@H]1OCC1CCC1)c1ccon1 |  | -8 | 1.51
CC(C)(C(=O)O)c1cnc(NCCN2CCOCC2)nc1N1CCOCC1 |  | 0 | -0.02
C[C@H]1CCOCCN1C(=O)c1ccc(-c2cnn(C)c2)o1 |  | 4 | -0.69
O=C(OC[C@H]1CCCO1)c1cnn2c(C(F)(F)F)cc(-c3ccccc3)nc12 |  | -15 | 2.19
c1ccc(-c2nc(NC3CCCC3)c3oc(-c4ccccc4)nc3n2)cc1 |  | -7 | 0.89
Cn1cc(-c2ccc3c(c2)OCC[C@H]2CN(C(=O)COc4ccccc4)CC[C@H]2CC(=O)N3)cn1 |  | -14 | 1.84
C[C@@H](CNc1cnc2ccccc2n1)N1CCOCC1 |  | 20 | -2.58
CC(C)c1noc([C@H](C)NC(=O)Cc2c[nH]c(=O)n(C)c2=O)n1 |  | -14 | 1.85
CN1CCc2c(c3ccccc3n2Cc2ccccn2)C1 |  | -7 | 0.86
O=C(N[C@H]1CCO[C@H](c2cccnc2)C1)c1ccc(OC(F)F)nc1 |  | -3 | 0.69
CC[C@@H](CC1CCCCC1)C(=O)Nc1c(C(F)F)n[nH]c1C |  | 18 | -2.35
CCCc1nnc(CN[C@](C)(COC)CC(=O)OC)s1 |  | -8 | 0.98
CO[C@@]12CC[C@H](OCCO)C[C@@H]1N(Cc1ccc(F)c(F)c1F)CC2 |  | 14 | -1.98
CC[C@@H]1OC2(CCN(C(=O)CC3=CCCCC3)CC2)NC1=O |  | 7 | -1.17
O=C(OCc1ccccc1)N1CCN(c2nc3ccccc3c3nnc(-c4ccccc4Cl)n23)CC1 |  | -11 | 1.7

SMILES | % Inhibition (2 µM) | % Inhibition [%] | Z score
CCn1ccc2c(cc(C(=O)Nc3ccccc3Cl)n2C)c1=O |  | -13 | 1.22
Cc1nc2ncnn2c(O)c1Oc1ccc(N)cc1 |  | -8 | 1.38
COc1ccc(F)cc1-c1cncc(CN2CCOCC2)c1 |  | -1 | 0.17
Cc1cc(CNC(=O)[C@@H]2CCC[C@@H](NC(=O)C(C)(C)C)CN(C)C(=O)C2)no1 |  | -11 | 1.46
O=C(CC1CCCC1)N1CCC[C@H]1c1nc2ccccc2s1 |  | -10 | 1.32
CC(C)(C)OC(=O)N1CC2CC1CCC2=O (stereo not given) |  | -3 | 0.51
C[C@@H](Cc1ccsc1)NC(=O)c1cnc(-c2cccnc2)nc1 |  | -15 | 1.75
COC1CCN(c2cc([C@H]3CCOC3)nc(N)n2)CC1 |  | -5 | 0.9
CCc1ncnc(O[C@H]2CCN(C(=O)CC3CC3)C2)c1F |  | -7 | 1.16
CN(C)C(=O)[C@H](NC(=O)OC(C)(C)C)c1ccccc1Cl |  | -6 | 0.72
COc1ccc([C@H](CNC(=O)C2CCN(S(=O)(=O)c3ccccc3F)CC2)N2CCCCC2)cc1 |  | -15 | 1.57
O=C(NCC1CC1)c1ccc2c(=O)n3c(nc2c1)CCCCCC3 |  | -8 | 0.78
CCc1nc2ccc(NC(=O)N3CCOC[C@@H]3CNS(C)(=O)=O)cc2s1 |  | 0 | -0.02
CCC1CCCN(C(=O)C2(C)CC2(Cl)Cl)C1 (stereo not given) |  | 1 | -0.12
CC(C)Nc1cccc(CNC(=O)C2(C(=O)O)CC3CCC2C3)c1 (stereo not given) |  | 1 | -0.19
N#Cc1ccc(S(=O)(=O)Nc2cnn(-c3ccccc3)n2)cc1 |  | 15 | -1.68
Cc1cccc(CS(=O)(=O)N2C3C=CCC2CC3)c1 (stereo not given) |  | -25 | 4.29
O=C(Nc1nnc(-c2cccs2)o1)c1ccc2c(c1)OCCO2 |  | -14 | 2.55
CN(CCNC(=O)c1ccc(-c2ccnc(N3CCCC3)n2)cc1)C1CCCCC1 |  | -15 | 1.94
COCc1nc(NC2CCC(NC(=O)c3cccc(F)c3)CC2)c2c(C)nn(-c3ccccc3)c2n1 (stereo not given) |  | 2 | -0.35
CCN(CC)C(=O)c1c2c(cn(-c3ccc(Cl)cc3)c1=O)C(=O)CC(C)(C)C2 |  | -10 | 1.08

SMILES | % Inhibition (2 µM) | % Inhibition [%] | Z score
CC(C)(C)C(=O)N1CCC[C@H](Oc2ccncc2Cl)C1 |  | 2 | -0.28
COc1ccc(C(=O)N2CC3CC2CO3)cc1OC (stereo not given) |  | -17 | 2.02
Cc1ccc(CN(Cc2ccc(C(O)(c3ccc(F)cc3)c3ccc(F)cc3)o2)CC(C)C)o1 |  | -10 | 1.22
CC(C)N1C(=O)C[C@H](NC(=O)Nc2nc3c(s2)CCC3(C)C)C1=O |  | -6 | 1.15
CC(C)(C)NC(=O)CN1CCC(CNc2ncc(Cl)cn2)CC1 |  | -2 | 0.45
Cn1c(CN2CCCC2)nnc1[C@H]1CCCN(c2cc(N)nc(N)n2)C1 |  | -9 | 1.86
CN(C)c1ccc(NC(=O)N2CCN(c3ccccc3O)CC2)nc1 |  | -9 | 1.66
Cc1ccc(NC(N)=O)c(Br)c1 |  | 1 | -0.09
CC(=O)N(C)CCc1noc([C@@H]2NCCOc3ccccc32)n1 |  | -4 | 0.73
Cc1ncc(C(=O)N2CCC(CCCc3ccccc3)CC2)c(O)n1 |  | -1 | 0.12
Fc1ccccc1CN1CCN(Cc2nnc3n2CCCCC3)CC1 |  | -3 | 0.39
O=C(C[C@]1(c2ccccc2)CC(=O)N(Cc2ccc3c(c2)OCO3)C1=O)N1CCc2ccccc2C1 |  | 13 | -1.7
O=S1(=O)CCC[C@H](NCc2cnn3ccccc23)C1 |  | -5 | 0.49
COC1CCCCC1NC(=O)NCCN(C)C(C)C (stereo not given) |  | -3 | 0.47
Cc1ccc(S(=O)(=O)C2(C(=O)NCc3ccc(N4CCCC4=O)cc3)CCCC2)cc1C |  | -11 | 2.07
O=S(=O)(NCCOc1ccccc1F)c1ccc2ccccc2c1 |  | -2 | 0.36
O=C(COc1ccc(Cl)cc1Cl)N[C@H](c1cccnc1)C1CCOCC1 |  | -5 | 0.89
Cc1ccc(Cn2c(=O)n(CCNC(=O)[C@H]3CCOC3)c3ncccc32)cc1 |  | -12 | 2.01
COCCn1c(C)cnc1C[C@H]1CCN(C(=O)NCc2ccc(OC)cc2)C1 |  | -16 | 2.03
Cc1cc(C(=O)N[C@@H](C)c2nnnn2C)nn1C(C)C |  | -15 | 2.6
Cc1cc(C)cc(-n2ccn3cc(-c4ccc(Cl)cc4)nc3c2=O)c1 |  | 2 | -0.24

SMILES | % Inhibition (2 µM) | % Inhibition [%] | Z score
COc1ccccc1CNC(=O)[C@H]1CCCN(S(C)(=O)=O)CCC(=O)NCC1 |  | -15 | 2.78
COC[C@H]1CCCN(S(=O)(=O)NCc2nc3c(s2)CCCC3)C1 |  | 0 | 0.01
COc1cccc(N2CCC(N3CCC4(CC3)CNC(=O)O4)CC2)c1 |  | -2 | 0.35
CN(C[C@H]1COc2ccccc2O1)C(=O)c1cn2ccsc2n1 |  | -4 | 0.59
CC[C@@H](Cc1ccccc1)N(CC)C(=O)c1cnns1 |  | 11 | -1.07
O=C(CCNCc1cc(Br)c2c(c1)OCO2)N1CCCC1 |  | 16 | -1.88
COc1ccc(-c2nn(-c3ccccc3)cc2CN2CC[C@H](N(C)C)C2)c(F)c1 |  | -3 | 0.52
O=C(c1n[nH]c2c1CCCC2)N1CC[C@@H](Nc2nc3c(F)cccc3o2)C1 |  | -9 | 1.64
COCCN(CC(=O)N(Cc1ccccc1)Cc1ccc(C)o1)C(=O)C1CCCC1 |  | 1 | -0.16
CNS(=O)(=O)CC1CCCN1CC1CCC(C)O1 (stereo not given) |  | -5 | 0.75
COCC(=O)N1CC[C@@]2(CCCN(CCCc3ccccc3)C2)C1 |  | 7 | -0.98
CCNC(=O)N1CCC(OC(C)=O)CC1 |  | -23 | 3.52
O=C([C@@H]1C[C@H](COc2cccnc2)CN(Cc2ccncc2)C1)N1CCCC1 |  | -10 | 1.97
CS(=O)(=O)N1CCC(C(=O)N2CCc3sccc3C2)CC1 |  | -9 | 1.09
Cc1cn2ccc(NC(=O)NCC[C@H]3CC(=O)N(C)C3)cc2n1 |  | -12 | 2.29
C[C@@H]1CN(C2CCC(=O)N(Cc3ccccc3Cl)CC2)C[C@H](C)O1 (stereo not given in full) |  | -11 | 1.2
Cc1cc(NC(=O)CCN[C@@H](C)c2cc3ccccc3o2)no1 |  | -10 | 1.4
CC(C)n1ccnc1-c1ccc(C(=O)N(C)Cc2ccon2)cc1 |  | -3 | 0.53
Cc1cccc(-c2ncc(CN3CCC4(CC3)N=C(N(C)C)NC4=O)cn2)c1 |  | -7 | 1.45
COc1ccc([C@H]2N(/C(CN3CCCC3)=N\S(=O)(=O)c3ccc(C)cc3)CCCN2S(=O)(=O)c2ccc(C)cc2)cc1 |  | 28 | -3.14
